{"source": "ChEMBL document CHEMBL4888484", "about": "“Replenishing the malaria drug discovery pipeline: Screening and hit evaluation of the MMV Hit Generation Library 1 (HGL1) against asexual blood stage Plasmodium falciparum ,using a nano luciferase reporter read-out” (2022)", "note": "Screen size: about 150,000 compounds; about 540 (0.36%) showed an effect of 50% or more. This is one part of the list.", "data": [{"system": "Plasmodium falciparum", "assay": "Primary screen in NF54 nanoGlo assay, in single point, at 2uM, 72h; a lower Z score goes with more inhibition", "type": "functional, Erythrocyte", "conditions": "timepoint 72 hour", "units": {"% Inhibition": "%"}, "values": [{"compound": "Cc1ccn(CC(=O)NOCc2ccccc2)c(=O)c1C#N", "% Inhibition": -11, "Z score": 1.07}, {"compound": "CCN1C[C@H](Nc2nnnn2-c2ccccc2)[C@@H](OC)C1", "% Inhibition": 5, "Z score": -0.72}, {"compound": "O=C([C@@H]1C=CCN1)N(Cc1ccncc1)Cc1ccc2c(c1)OCO2", "% Inhibition": -8, "Z score": 1.35}, {"compound": "CCCN(CC(=O)OC)S(=O)(=O)c1cnn([C@H]2CCOC2)c1", "% Inhibition": 6, "Z score": -0.66}, {"compound": "CCN(CC)C(=O)C1CCCN(C2CCC(=O)N(Cc3ccc(F)c(F)c3)CC2)C1", "note": "(centres undefined)", "% Inhibition": 1, "Z score": -0.12}, {"compound": "CC(C)NS(=O)(=O)NC(C)C1CCN(Cc2ccccc2)C1", "note": "(centres undefined)", "% Inhibition": -8, "Z score": 1}, {"compound": "C[C@@H]1CCO[C@@H]1C(=O)NS(=O)(=O)Cc1ccc2c(c1)COC2", "% Inhibition": -1, "Z score": 0.13}, {"compound": "C[C@@H](c1ccco1)N(C)C(=O)Cn1ncc(N(C)Cc2ccccc2)cc1=O", "% Inhibition": -13, "Z score": 1.95}, {"compound": "O=C1NC2(C(=O)NCC3(c4ccccc4)CC3)CC3CC1C2C3", "note": "(centres undefined)", "% Inhibition": -7, "Z score": 1.44}, {"compound": "Cc1ccc(Cn2nc(CC(N)=O)nc2[C@@H]2C[C@@H](O)CN2)cc1", "% Inhibition": -11, "Z score": 2.09}, {"compound": "O=C(Cn1cc(S(=O)(=O)Cc2ccccc2F)c2ccccc21)N1CCCc2ccccc21", "% Inhibition": -5, "Z score": 0.75}, {"compound": "CNc1cc(C)nc(NCc2ccc3[nH]c(C)c(C)c3c2)n1", "% Inhibition": -8, "Z score": 1.47}, {"compound": "CC[C@H]1Cn2c(C(=O)NC3CCCC3)cc3c(Cl)ccc(c32)O1", "% Inhibition": 33, "Z score": -4.82}, {"compound": "Cc1cc(F)ccc1Oc1cc(N2CCN(S(=O)(=O)c3ccccc3)[C@@H](C)C2)ncn1", "% Inhibition": 2, "Z score": -0.27}, {"compound": "C[C@@H](Cc1ccoc1)NC(=O)C1CCC1", "% Inhibition": -2, "Z score": 0.29}, {"compound": "Fc1ccc(N2CCN(c3nn4cnnc4c4ccccc34)CC2)cc1", "% Inhibition": -10, "Z score": 1.31}, {"compound": "CCOC(=O)N1CCN(C(=O)Nc2ccc(NC(=O)N3CCN(C(=O)OCC)CC3)cc2)CC1", "% Inhibition": -17, "Z score": 2.27}, {"compound": "Cn1cc(C[C@H](NC(=O)OC(C)(C)C)C(=O)N2CC=C(c3c[nH]c4ccccc34)CC2)c2ccccc21", "% Inhibition": 3, "Z score": -0.46}, {"compound": "Nc1cc(Cl)ccc1Br", "% Inhibition": -2, "Z score": 0.24}, {"compound": "O=C(COc1ccc(F)cc1)N[C@H]1CC(=O)N(c2ccc3c(c2)OCCO3)C1", "% Inhibition": -12, "Z score": 2.36}, {"compound": "CC(=O)Cn1nc(C)c(-c2ccc(C(=O)O)cc2)c1C", "% Inhibition": -2, "Z score": 0.2}, {"compound": "O=C(c1coc(CN2CCN(C[C@H](O)CN3CCOCC3)CC2)n1)N1CCN(c2ccccc2)CC1", "% Inhibition": -4, "Z score": 0.63}, {"compound": "O=C(C1CCC1)N1CCOc2ccc(CN3CCCC3)cc2C1", "% Inhibition": -15, "Z score": 1.58}, {"compound": "COc1ccc(-c2cn3c(n2)sc2ccccc23)cc1OC", "% Inhibition": 14, "Z score": -1.27}, {"compound": "Nc1[nH]n(-c2ccccc2)c(=O)c1C1=NCCCCC1", "% Inhibition": -2, "Z score": 0.27}, {"compound": "NC(=O)NC(=O)[C@H](Nc1ccc(Oc2ccc(Br)cc2)cc1)c1ccccc1", "% Inhibition": -4, "Z score": 0.44}, {"compound": "CCN(CC)CCN(CC(=O)N1CCCN(c2ccc(-c3ccc(OC)cc3)nn2)CC1)C(=O)c1ccco1", "% Inhibition": -3, "Z score": 0.57}, {"compound": "CC(C)(C)c1cc(CN2CCC(Oc3ccccc3F)(C(=O)O)CC2)n[nH]1", "% Inhibition": 2, "Z score": -0.28}, {"compound": "CC(=O)Nc1ccc(-n2c(CCC(=O)N3CCc4ccccc4C3)ccc2-c2ccc(F)cc2)cc1", "% Inhibition": -19, "Z score": 2.73}, {"compound": "CC(C)N(C)C(=O)c1ccc(Cl)c(N)c1", "% Inhibition": -11, "Z score": 2.04}, {"compound": "Cc1nn([C@@H]2CCCCO2)c(C)c1Br", "% Inhibition": -10, "Z score": 1.3}, {"compound": "CCc1nc(C)sc1Cn1cc(-c2cc(OC)c3c(c2)OCO3)nn1", "% Inhibition": 1, "Z score": -0.11}, {"compound": "CC(=O)c1cnc(NC[C@H](C)Cn2nc(C)cc2C(F)(F)F)nc1C", "% Inhibition": -9, "Z score": 1.19}, {"compound": "CCn1c(Cc2cccs2)nc2ccccc21", "% Inhibition": -6, "Z score": 0.85}, {"compound": "CN(CC(=O)N1CCN(c2ccccn2)CC1)C(=O)c1c[nH]c2ccccc12", "% Inhibition": -8, "Z score": 1.19}, {"compound": "COc1cc(C)c(S(=O)(=O)N2CCc3cc4cc(C)ccc4nc32)cc1C", "% Inhibition": 26, "Z score": -3.26}, {"compound": "CN1CCO[C@H](C(=O)Nc2nc(CC(C)(C)C)cs2)C1", "% Inhibition": -14, "Z score": 1.62}, {"compound": "O=C(c1ccc(C2=CCCC2)cc1)N1CCC(c2nnc3n2CCCC3)CC1", "% Inhibition": -11, "Z score": 1.75}, {"compound": "COc1nc(C)c(Br)c(C)c1C(=O)O", "% Inhibition": -2, "Z score": 0.38}, {"compound": "CN(C)c1ccccc1NC(=O)[C@@H]1CCCCC(=O)N1", "% Inhibition": -2, "Z score": 0.43}, {"compound": "CC(C)(NCC(=O)NCC(=O)O)c1ccc(Cl)c(Cl)c1", "% Inhibition": 32, "Z score": -3.66}, {"compound": "Cc1cccn(CC(=O)N2CCC(=O)[C@@H](C)C2)c1=O", "% Inhibition": 2, "Z score": -0.36}]}]}
